In patent US20090136523A1:

Tests used:
Assay in all cases: peptide microarray
[1] = target: peptide 28 (human)
[2] = target: peptide 42 (human)
[3] = target: peptide 132 (human)
[4] = target: peptide 116 (human)
[5] = target: peptide 56 (human)
[6] = target: peptide 126 (human)
[7] = target: peptide 5 (human)
[8] = target: peptide 54 (human)
[9] = target: peptide 97 (human)
[10] = target: peptide 44 (human)
[11] = target: peptide 61 (human)
[12] = target: peptide 101 (human)
[13] = target: peptide 41 (human)
[14] = target: peptide 52 (human)
[15] = target: peptide 73 (human)
[16] = target: peptide 111 (human)
[17] = target: peptide 3 (human)
[18] = target: peptide 83 (human)
[19] = target: peptide 131 (human)
[20] = target: peptide 62 (human)
[21] = target: peptide 63 (human)
[22] = target: peptide 48 (human)
[23] = target: peptide 60 (human)
[24] = target: peptide 81 (human)
[25] = target: peptide 74 (human)
[26] = target: peptide 89 (human)
[27] = target: peptide 104 (human)
[28] = target: peptide 30 (human)
[29] = target: peptide 108 (human)
[30] = target: peptide 85 (human)
[31] = target: peptide 78 (human)
[32] = target: peptide 122 (human)
[33] = target: peptide 1 (human)
[34] = target: peptide 50 (human)
[35] = target: peptide 71 (human)
[36] = target: peptide 105 (human)
[37] = target: peptide 87 (human)
[38] = target: peptide 67 (human)
[39] = target: peptide 25 (human)
[40] = target: peptide 9 (human)
[41] = target: peptide 119 (human)
[42] = target: peptide 29 (human)
[43] = target: peptide 68 (human)
[44] = target: peptide 95 (human)
[45] = target: peptide 55 (human)
[46] = target: peptide 22 (human)
[47] = target: peptide 2 (human)
[48] = target: peptide 40 (human)
[49] = target: peptide 76 (human)
[50] = target: peptide 120 (human)
[51] = target: peptide 35 (human)
[52] = target: peptide 114 (human)
[53] = target: peptide 58 (human)
[54] = target: peptide 59 (human)
[55] = target: peptide 39 (human)
[56] = target: peptide 90 (human)
[57] = target: peptide 127 (human)
[58] = target: peptide 64 (human)
[59] = target: peptide 23 (human)
[60] = target: peptide 24 (human)
[61] = target: peptide 118 (human)
[62] = target: peptide 36 (human)

B1: rhuMAb 411 (antibody, human IgG1, kappa)
heavy: EVQLVESGAGVKQPGGTLRLTCTASGFSLTTYGVHWVRQAPGKGLEWVGVIWGDGRTDYDAAFMSRVTISKDTSKSTVYLQMNSLRAEDTAVYYCMRNRHDWFDYWGQGTTVTVSS[letters of human IgG1 constant region left out]
light: DILLTQSPSSLSATPGERATITCRASQGIRNNLNWYQQKPGQAPRLLIYYSSNLQSGVPSRFSGSGSGTDFTLTISRLQPEDVAAYYCQQSIKLPFTFGSGTKVEIKRTVAAPSVFIFPPSDEQLKSGTASVVCLLNNFYPREAKVQWKVDNALQSGNSQESVTEQDSKDSTYSLSSTLTLSKADYEKHKVYACEVTHQGLSSPVTKSFNRGEC
B1 showed a Mean Signal Value [1] of 0.221, a Mean Signal Value [2] of 0 and a Mean Signal Value [3] of 113. The Mean Signal Value [4] was 0.0385, the Mean Signal Value [5] was 11.7 and the Mean Signal Value [6] was 0.0337. The Mean Signal Value [7] was 43.1, the Mean Signal Value [8] was 13 and the Mean Signal Value [9] was 0.0144. The Mean Signal Value [10] was 0, the Mean Signal Value [11] was 0.0385 and the Mean Signal Value [12] was 0.00481. For the same binder, the Mean Signal Value [13] was 0.0673, the Mean Signal Value [14] was 0.12 and the Mean Signal Value [15] was 33.6. The Mean Signal Value [16] was 0, the Mean Signal Value [17] was 0.726 and the Mean Signal Value [18] was 3.64. It also gave a Mean Signal Value [19] of 5.25, a Mean Signal Value [20] of 0.00481 and a Mean Signal Value [21] of 8.12. The Mean Signal Value [22] was 12.1, the Mean Signal Value [23] was 0.0769 and the Mean Signal Value [24] was 35.4. For the same binder, the Mean Signal Value [25] was 0, the Mean Signal Value [26] was 0 and the Mean Signal Value [27] was 0.00481. For the same binder, the Mean Signal Value [28] was 6.26, the Mean Signal Value [29] was 1.33 and the Mean Signal Value [30] was 1.02. The Mean Signal Value [31] was 7.86, the Mean Signal Value [32] was 0.308 and the Mean Signal Value [33] was 3.5. It also gave a Mean Signal Value [34] of 34.6, a Mean Signal Value [35] of 0 and a Mean Signal Value [36] of 0. For the same binder, the Mean Signal Value [37] was 0.0288, the Mean Signal Value [38] was 0.00962 and the Mean Signal Value [39] was 0. The Mean Signal Value [40] was 0.0673, the Mean Signal Value [41] was 0.024 and the Mean Signal Value [42] was 2.16. It also gave a Mean Signal Value [43] of 0, a Mean Signal Value [44] of 6.14 and a Mean Signal Value [45] of 124. For the same binder, the Mean Signal Value [46] was 0.0192, the Mean Signal Value [47] was 16.5 and the Mean Signal Value [48] was 32.2. The Mean Signal Value [49] was 0.0337, the Mean Signal Value [50] was 0.0337 and the Mean Signal Value [51] was 84.7. The Mean Signal Value [52] was 0.00481, the Mean Signal Value [53] was 33.8 and the Mean Signal Value [54] was 0.683. The Mean Signal Value [55] was 55.7, the Mean Signal Value [56] was 0 and the Mean Signal Value [57] was 0.00962. For the same binder, the Mean Signal Value [58] was 0.438, the Mean Signal Value [59] was 0.00481 and the Mean Signal Value [60] was 0.00962. The Mean Signal Value [61] was 0 and the Mean Signal Value [62] was 28.2.
